According to paper PMC4336329 (PLoS ONE, 2015):
Out of some 310,000 compounds screened, about 14,000 (4.5%) showed an effect of 50% or more. Effects have a minus sign here. The list shows a part of the results.

What follows are compounds tested against human ether-à-go-go-related gene (hERG) potassium channel (human, UniProt Q12809) (assay: primary screen, population patch clamp on CHO cells stably expressing hERG).
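Further: peak tail current of the secondary pulse compared with the same well before compound.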

human ether-à-go-go-related gene (hERG) potassium channel, sequence (Q12809 whole entry, looked up): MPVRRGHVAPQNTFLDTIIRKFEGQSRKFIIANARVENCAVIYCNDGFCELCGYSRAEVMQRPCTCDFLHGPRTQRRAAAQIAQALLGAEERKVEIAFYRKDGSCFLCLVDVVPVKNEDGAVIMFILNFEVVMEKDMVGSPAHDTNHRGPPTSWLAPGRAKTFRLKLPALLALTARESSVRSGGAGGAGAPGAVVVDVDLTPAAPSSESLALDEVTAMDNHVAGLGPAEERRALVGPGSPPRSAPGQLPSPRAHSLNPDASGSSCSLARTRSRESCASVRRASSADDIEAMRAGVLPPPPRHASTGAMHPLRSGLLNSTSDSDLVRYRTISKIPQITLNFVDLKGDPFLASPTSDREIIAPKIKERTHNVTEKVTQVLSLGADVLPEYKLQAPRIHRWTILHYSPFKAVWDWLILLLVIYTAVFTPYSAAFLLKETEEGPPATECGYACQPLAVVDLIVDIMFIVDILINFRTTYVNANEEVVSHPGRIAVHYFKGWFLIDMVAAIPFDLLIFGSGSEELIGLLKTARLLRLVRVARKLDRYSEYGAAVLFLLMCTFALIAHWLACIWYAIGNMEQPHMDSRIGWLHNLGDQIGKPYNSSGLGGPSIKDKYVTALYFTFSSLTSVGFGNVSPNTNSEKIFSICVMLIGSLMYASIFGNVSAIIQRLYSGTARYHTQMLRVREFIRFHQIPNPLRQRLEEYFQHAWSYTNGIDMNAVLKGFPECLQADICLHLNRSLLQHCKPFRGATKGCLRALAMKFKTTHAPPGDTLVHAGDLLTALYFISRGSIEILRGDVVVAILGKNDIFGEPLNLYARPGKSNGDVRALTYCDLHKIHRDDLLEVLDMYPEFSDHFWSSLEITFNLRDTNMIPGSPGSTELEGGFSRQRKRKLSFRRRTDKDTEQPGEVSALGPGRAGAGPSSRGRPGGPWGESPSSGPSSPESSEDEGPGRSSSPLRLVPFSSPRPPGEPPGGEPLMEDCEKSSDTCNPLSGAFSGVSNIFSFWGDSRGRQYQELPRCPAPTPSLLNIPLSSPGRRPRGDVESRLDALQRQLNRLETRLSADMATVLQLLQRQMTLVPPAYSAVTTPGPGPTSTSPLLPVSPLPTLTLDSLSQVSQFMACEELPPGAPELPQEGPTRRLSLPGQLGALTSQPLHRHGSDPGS

SMILES | hERG current change (%, negative = inhibition) at 10uM
COCc1cc(C)nc2sc(C(=O)Nc3ccc(OC)cc3)c(N)c12 | 12.5%
O=C1Nc2ccc(Br)cc2C1=Nc1cccnc1 | 2.71%
CCn1cc(C(=O)NCCN(CC(C)C)CC(C)C)c(=O)c2cc(S(=O)(=O)N3CCOCC3)ccc21 | -14.1%
CCCCCCCC(=O)N/N=C(\C)c1cccnc1 | -21.9%
COc1ccccc1N1CCN(C(c2cccs2)C(C)NC(=O)C(=O)N2CCCCC2)CC1 (stereo not drawn) | -3.38%
COc1ccc(C(=O)/C=C/c2ccsc2)cc1CSCC(=O)O | 10.7%
COc1ccc(CN2CCNC(=O)C2CC(=O)N(C)CCCN2CCOCC2)cc1C (stereo not drawn) | 11.9%
NS(=O)(=O)c1ccc(NC(=O)COC(=O)COc2ccc(Cl)cc2)cc1 | 15.9%
Cc1ccc(NC(=O)c2c(C(=O)Nc3ccccc3)sc3nc(C)cc(=O)n23)cc1 | 42.2%
COCCNC(=O)[C@H]1N2C(=O)c3c(ccc(OC)c3OC)C2SC1(C)C (stereo partly drawn) | 12.9%
O=C(NCCc1ccccc1)C1CC(=O)N(CCc2ccccc2)C1 (stereo not drawn) | 6.57%
Cc1ccc(/C=N/NC(=O)Cn2cnc3ccccc32)cc1 | 14.4%
CCC(C)NS(=O)(=O)c1cccs1 (stereo not drawn) | 7.86%
COc1ccc(S(=O)(=O)N2CCC(NC(=O)c3cccnc3)CC2)cc1 | -64.7%
C/C(=N/NS(=O)(=O)c1ccc(C)cc1C)c1ccc2c(c1)OCO2 | -2.58%
O=C(COC(=O)CC1CCCC1)Nc1ccccc1[N+](=O)[O-] | 4%
CC1CN/C(=C\C(=O)c2ccc(Cl)cc2)C(=O)N1 (stereo not drawn) | -17.8%
Cc1ccnc2nc(C(=O)Nc3ccc4c(c3)OCO4)nn12 | -2.98%
O=C(CN1C(=O)NC2(CCCC2)C1=O)Oc1ccc2ccc(=O)oc2c1 | 7.71%
CCOC(=O)C1CCN(C(=O)N2CCOCC2)CC1 | 0.666%
COc1cc(C(C[N+](=O)[O-])c2c(C)cc3ccccn23)ccc1O (stereo not drawn) | 6.21%
COc1cc(NC(=O)COC(=O)C2CC2)c(C)cc1[N+](=O)[O-] | 1.13%
CN(C)P(=O)(CCl)Nc1ccccc1 (stereo not drawn) | 12.9%

SMILES | hERG current change (%, negative = inhibition) at 10uM
COC(=O)CSc1nnc(-c2cccnc2)n1-c1cccc(OC)c1 | 0.897%
Cc1ccc(N2C(=O)C3C4C=CC(C4)C3C2=O)cc1 (stereo not drawn) | 3.12%
CCc1ccc(S(=O)(=O)N2CCN(c3ccccc3OC)CC2)cc1 | 6.8%
COC(=O)C1=C(C(=O)OC)[C@@H]2N(Cc3ccccc3)c3ccccc3[C@@]23C[C@@H](CO)N(C(=O)NC2CCCC2)C3=N1 | -9.18%
O=C(NCc1ccccc1)C1CCN(S(=O)(=O)N2CCCCCC2)CC1 | -11%
N#CCCc1cccc(CCC#N)c1 | 3.45%
Cc1ccc2nc(N(CCCN(C)C)C(=O)c3ccc(S(=O)(=O)N4CCc5ccccc5C4)cc3)sc2c1.Cl | -25.3%
O=C(Cn1cnc2ccccc2c1=O)OCCCCN1C(=O)c2ccccc2C1=O | 0.306%
Cc1nn(C)cc1S(=O)(=O)N1CCCC(C(=O)O)C1 (stereo not drawn) | 17.4%
CCOc1cc(/C=C2\C(=O)N(CCC#N)N=C2C)ccc1OCC(N)=O | 37%
Cc1ccccc1NC(=O)c1cc(C(=O)c2cc(Cl)ccc2O)cn(-c2ccccc2C)c1=O | -4.89%
c1ccc(-c2nn3cnnc3c3ccccc23)cc1 | 2.22%
O=c1cnnc(N/N=C/C2CC=CCC2)[nH]1 (stereo not drawn) | -9.67%
CCOC(=O)C1CCCN(Cc2nc(N)nc(Nc3ccc(OC)cc3)n2)C1 (stereo not drawn) | -75.6%
Cc1ccc(/C=C(\C#N)C(=O)Nc2cccc3ncccc23)o1.Cl | 14.1%
CC(=NCc1ccco1)c1c(O)n(Cc2ccccc2)c(=O)[nH]c1=O | -7.99%
CCOc1ccccc1NC(=O)CSc1ncnc2c1oc1ccccc12 | -1.63%
Cc1ccc(C(=O)c2ccccc2C(=O)OCC(=O)NCCc2ccc(Cl)cc2Cl)cc1 | -9.96%
FC(F)(F)c1ccc(Cl)c(NC(=S)NC2CC2)c1 | 5.6%
Cc1cccc(NC(=O)CSc2nnc(C)c(=O)n2N)c1 | 13.1%
CC(C)C(=O)N1CCN(c2ccc(NC(=O)c3ccc(Br)o3)cc2)CC1 | -0.0806%
CCOC(=O)Cc1csc(Nc2ccc(Cl)cc2)n1 | 14.9%
COc1cc(NC(=O)Cn2nc(-c3ccc(F)cc3)ccc2=O)ccc1-n1cnnn1 | 0.775%

SMILES | hERG current change (%, negative = inhibition) at 10uM
Cc1ccc(SCc2cn3cc(Cl)ccc3n2)cc1 | -28.3%
O=C1CCCc2c1nc(-c1ccc([N+](=O)[O-])cc1)n2O | 14%
COc1ccc(NC(=O)NNS(=O)(=O)c2ccc(OC)c(OC)c2)c(OC)c1 | 2.16%
O=C(COc1ccccc1[N+](=O)[O-])NC1CC1 | -4.45%
O=[N+]([O-])c1ccccc1NCc1c(O)ccc2ccccc12 | 17.9%
Nc1nc(NCc2cccs2)nn1-c1ccccc1 | -2.03%
O=C(C(=O)N1CCCc2ccccc21)N1CCCc2ccccc21 | -25.5%
CCNc1cc2n(c(=O)n1)CCc1cc(OC)c(OC)cc1-2 | -19.5%
OCC[C@@H]1C[C@H](O)[C@@H](O)[C@]2(OCc3ccccc32)O1 | 10%
CC1CCN(CCNC(=O)c2ccc(NC(=O)C3CCCO3)cc2)CC1 (stereo not drawn) | 3.07%
COc1ccc2c(c1)CC(N1CCN(C)CC1)c1cc(OC)ccc1S2.O=C(O)/C=C\C(=O)O (stereo not drawn) | -25.9%
Cc1ccc(/C=N/NC(=O)CNC(=O)c2ccc(S(=O)(=O)N(C)C)cc2)o1 | 16.4%
COc1ccccc1-c1noc2ncnc(Nc3ccc4c(c3)OCO4)c12 | 3.72%
Cc1cccc(OC(C)C(=O)Nc2ccc(S(=O)(=O)N3CCCC3)cc2)c1 (stereo not drawn) | -7.85%
C[C@@H]1CC=C[C@H]2[C@H]1C(=O)N(Cc1ccccc1)[C@H]2c1ccc(F)c(/C=C/c2ccccc2)c1 | 12.4%
O=C(CN1C(=O)c2cccc3cccc1c23)Nc1ccccc1C(=O)NCc1ccco1 | -2.36%
Cc1ccc(CN2CCCCC2C(=O)Nc2ccc(Oc3cccnc3)cc2)o1 (stereo not drawn) | -19.4%
CCOC(=O)CC(=O)CSc1nc(C)nc2c1oc1ccccc12 | 19.7%
Cc1ccc(SCC(=O)N=C2NC(=O)CS2)cc1 | 9.66%
CN(Cc1cccs1)C(=O)COC(=O)CNC(N)=O | 1.16%
COc1ccc(CC2c3cc(OC)c(OC)cc3CCN2C)cc1OC (stereo not drawn) | -2.23%
O=S(=O)(c1cccc2nsnc12)N1CCOCC1 | -0.495%
CCN(C(=O)COC(=O)CCCN1C(=O)c2cccc3cccc(c23)C1=O)C1CCS(=O)(=O)C1 (stereo not drawn) | -19.3%

SMILES | hERG current change (%, negative = inhibition) at 10uM
NC(=O)/C(=C/c1ccc2c(c1)OCO2)NC(=O)c1ccco1 | 14.3%
Cc1ccc(NC(=O)c2cc(N(C)C)ccc2[P+](=O)O)cc1 | 8.18%
CCOc1ccc(S(=O)(=O)N(C)CC(=O)NC2CC2)cc1 | 2.69%
C=CCn1c(=O)/c(=C\c2ccsc2)s/c1=C(/C#N)C(=O)NCCN1CCOCC1 | -11.8%
Br.CCOC(=O)/C(=N\Nc1ccccc1[N+](=O)[O-])c1csc(N)n1 | 12.6%
O=C(CNC(=O)c1ccccc1)N/N=C/C=C/c1ccccc1 | -1.96%
CC(C)(C)SCCNC(=O)/C=C/c1ccc(F)cc1 | -2.01%
CN1CCN(c2ccc(C(CC(N)=O)NC(=O)Cc3cccc4ccccc34)cc2[N+](=O)[O-])CC1 (stereo not drawn) | 9.82%
O=C1CCCC2=C1C(c1ccccc1)n1c(s/c(=C/c3cccc(F)c3)c1=O)=N2 (stereo not drawn) | 16%
CN1CCN(NC(=O)c2cc(-c3ccc(Br)s3)nc3ccccc23)CC1 | -20.3%
COC(=O)C1CCCCN1C(=O)c1ccc(OC2CCN(C(C)=O)CC2)c(OC)c1 (stereo not drawn) | 15.8%
CCOC(=O)Cc1csc(SC(C)C(=O)NC2CCCCC2C)n1 (stereo not drawn) | -1.29%
O=C(Nc1ccc(F)c(Cl)c1)N1CCCC1 | 5.93%
COc1cc2c(cc1O)CC1c3c(cc(O)c(OC)c3-2)CCN1C (stereo not drawn) | -59.2%
[O-][n+]1onc2c3cc(-c4ccccc4)nnc3ccc21 | 12.7%
Cc1ccccc1C(=O)N1CCC(C(=O)Nc2ccccc2Cl)CC1 | 9.73%
CNC(=O)c1nc(C)n(-c2cc(Cl)ccc2Cl)n1 | 21.9%
COc1ccc(NC(=S)NCc2cccnc2)cc1OC | 5.8%
Cc1ccc(NC(=S)NCCCN2CCOCC2)cc1 | 12.6%
COc1ccc(CNC2CCCC2)c(OC)c1OC | -6.2%
CCc1ccccc1NC(=O)Cc1cn(C)c2ccccc12 | 3.59%
